{"source": "the supplement of paper PMC12632987", "binders": {"B1": {"name": "traf2_out_20_38_2005 (protein)", "chain": "SEEEEEERRLKIIIEAANEELDRWEKEIEELKAEGKTVEEIAERAKEEVRRLLTAAGLEEEAEELIAEIDLVLDSPDALDAIARILARAKALVVQKELNK"}, "B2": {"name": "traf2_out_20_38_2029 (protein)", "chain": "SEEEEEERRLEELIKVANDSYDKYTKKFEKLVAEGKTVEEIAELAKKEVKEKLTAAGLEEEAKELIEDIDRALSSPNALRLIVRILARADALVHQKKINE"}, "B3": {"name": "traf2_out_12_187_968 (protein)", "chain": "SVAAELQEAAKAALEQALKALRKAAPEHPRFQRMLKRLEEVAELLKKHPEVAADVAVAASLVLRAVRLLEAGLPQEEIDAALEAAEAELEEVLKKLKKLE"}, "B4": {"name": "traf2_out_13_95_1223 (protein)", "chain": "SKEANEELRKVSNEMLDQAEAVIDALAARLAPHPETAPDIAAIRAALARQGIRQAIAVLRAAAARHPEVAADYLAAADALEALIREAGKKVAEIDKKAKE"}, "B5": {"name": "traf2_out_13_169_1029 (protein)", "chain": "SELRKKTEEELKKALERYLKENEEKIKELKAKGTPLAKRIAELAEKVRKLIDELLEKGDLYDATGLASRLLNILELAEEDPEAALKALEELLKEAERLVA"}, "B6": {"name": "traf2_out_18_3_1941 (protein)", "chain": "NEEKLKEISDEIDKIIDEVTAKAREALDRGLAEHPELAAEFEALRADLEAGAAPFGILDELAELWERAGDAAAAAELRAFLAEKRAKLQELVDEYEKLRK"}, "B7": {"name": "traf2_out_17_178_1745 (protein)", "chain": "TKEEHRKKAMEAADKLLDLTAKAAAEAKALLEAEGKLTPELAAQLDYVAKTSNLEAAEEVLTKAAAQSSSAEELNKILADLKAEAKPLRQEIGEEVNKML"}, "B8": {"name": "traf2_out_18_3_1909 (protein)", "chain": "SEEERKKVSDEIDKIVDEATAKAREALDRLEREHPEYAAEARRLRADLDAGAGPFGILEALAELAERAGDEEEAAEIREFLRKKKKEFQKLVDKYEELLK"}, "B9": {"name": "traf2_out_15_17_1311 (protein)", "chain": "SAEAALNEALRKAMNEVLDKDEELLDKLIKEAREEAKKIGKLEELEKLIEESKDYSVISRILILAQWAKEKGLEELAKKLEEAAEEARKARSEAARAVEK"}, "B10": {"name": "traf2_out_1_27_1000 (protein)", "chain": "STEEERELLRRANREIGRASPEEQVEIIKRTLREALERGIDSPEHIAVVLILMLGDEETRERAIEAAREVLREAGISEEAIERMERRVRSGWERLDRLLA"}, "B11": {"name": "traf2_out_11_169_819 (protein)", "chain": "EEAEKNRKINDFALEKNDEAKEKLLEHAKALAKKAGLDVEEVEKIFEENKNKSLSAVAAALIDYFRSKGKEEEAAAVLAKYEELKEEINKAVTEKIKELE"}, "B12": {"name": "traf2_out_6_3_2532 (protein)", "chain": "SHMSLLKDAKTVLENMGITTIEELKALVKAEVNAIKKLISRKDVDEADLAGARSVVALSRAMVEVAKETLPDFTEEDYEELNKLLEETEKLIKEREEKLK"}, "B13": {"name": "traf2_out_13_95_1090 (protein)", "chain": "SKEVAEKIMEIADKMLDKVLEELKKLLEKAKKDPELKPEVEKALYLAETQSINEAIALLKELAKKYPEYKEEFEETIEKIEEIKREAGKEVAKILKEEEE"}, "B14": {"name": "traf2_out_13_95_1204 (protein)", "chain": "EEEKTKKIREVTNAIADELLDAADATAAAVEAATGDAAAAAAVRAALRGHGVSAAIQTLRDLAAADPAHAATYEAAAAALEAARRAAGRRVAEELKRIEE"}, "B15": {"name": "traf2_out_3_89_2284 (protein)", "chain": "SHHMEALIEEARKIAEAYAKGFRKSLTFVAKQMVAEGHSLETLEGVANAAKTALVEEFRESLKERGLDEETIKEIVEELRKKLDEIVKEVIAEAKKARAA"}, "B16": {"name": "traf2_out_20_3_2143 (protein)", "chain": "EELEKKLEEELEKALKLLEEAAKLADKETAAVLKKLIKELEASKELSYSDRLVTLSEIRRTVLELAEKARAAGDEKLAELLEKAAEALNRAMNIVMKIIE"}, "B17": {"name": "traf2_out_17_162_1579 (protein)", "chain": "SELEEKLKELEEKLKELEKELKRFKEELKNLENKSKEELTDLLVEVSEARREALQLAEELKKLEKEIGEEKAKELIEKAEEIAEEFQRIANEIYKELLKK"}, "B18": {"name": "traf2_out_19_16_1973 (protein)", "chain": "KEERIEKIEKELEEIKKEVEKLEKYFEENEETLTREELSDLLVEASELKRKAQEILEELEKLKDYDPERVEKLKKEAEEIIEEAQRLMNRLVDKYLELLK"}, "B19": {"name": "traf2_out_17_178_1704 (protein)", "chain": "TKEEARRRISEATDEMIDLAEAAAQRLLEIAEEEGDLSPEELAELRRARRLGSARTTLALMERAIPRSRRAAEVQALLDDFRARYAELSREIAEALKEYE"}, "B20": {"name": "traf2_out_19_146_1961 (protein)", "chain": "SEEEKLKAFREEAEKRLKDLLESIDYIAKNFGYEEAALYATGAASSFTDRVEAEAAELKKTLSPEMQKKLDALAEELIEKAKKELTKKKEELEKKAAKEK"}, "B21": {"name": "traf2_out_13_95_1082 (protein)", "chain": "SKETNEKIMEISDEMLEKGKEILKELAEKVADDPEAKARVEEALHLLEHHGINAAIHLLEKMAEEDEEYKELLEEAIEKLKKIKREAGKKVAELLKEEEE"}, "B22": {"name": "traf2_out_13_95_1147 (protein)", "chain": "SRELAEKIMEIADEMLDKILEKLEELLKKAKKAGLKEEEMEKVLYLARYQSVNEAIHLLKELAKEYPELKEELEKTIKELEEIRREAGREVARLIKEEEE"}, "B23": {"name": "traf2_out_13_95_1197 (protein)", "chain": "EEEKTKKIREVTNAIADELLARADELAARLEAETGDAAAAARVRAALLGHGVNAAIAVLRELAAADPAHAAAYRAAAAELEAARREAGRRVAEKLKEIEE"}, "B24": {"name": "traf2_out_13_95_1176 (protein)", "chain": "SEETKKKINEIADEMLDKVEAILTELQKEVADDPEVAAEVEAILKTARTQGINTALGRLRELQAAHPEHAEKLTAAIDKIEAIREEAGKKVAEILKEEKE"}, "B25": {"name": "traf2_out_11_169_868 (protein)", "chain": "EEKEFNRKLIDFALEVEDEAKKELEEFALKLAKEYGLDVEEVKAIFEKNKNSSLSAVASALITYFESKGKEEAAKKILEKYDELKEEINKKVSAKIKELE"}, "B26": {"name": "traf2_out_1_27_1003 (protein)", "chain": "SDEEFRELLRRANKEIGRATPEEQIEIIEEAVREALERGLDSPELVAVNLILSLGDRETRERAIERVEEVLREAGLSEERIELMRRRVRSGWERLEKLLA"}, "B27": {"name": "traf2_out_1_33_1033 (protein)", "chain": "AAAKERRSLQIANKAASELYKVVRKELEEIRKLLEEGASLEEIEKKIEEARKRVEKKAEEILKEVKATEDEETVNLVESVLTSLIEIFDRELEELLKEAK"}, "B28": {"name": "traf2_out_13_95_1092 (protein)", "chain": "SKKVAEEINKIADKMLDESLKLLEELLKIAKKKGKIEEEIEEAIRLAKYRSINEAIHLLKELAKKYPEFKEELEATIEKIEEIKRKAGKEVAKILKKEEE"}, "B29": {"name": "traf2_out_13_95_1056 (protein)", "chain": "TLELAKKINEIADKAEEEMLKVLKEAAAKVADDPEAKAVFEEAEKLVKTRGINEALHLLREAAKADPAHKALFEETIAKLEEIKRKTGKEVAKLIKEYEE"}}, "note": "Over roughly 1,800 sequences, “median log2 fold change of GCK-ALFA target abundance (FLAG IP / Myc IP barcode read proportion)” has its median near 0.14; the lowest 2% begin near -0.84. The list shows a part of the results.", "data": [{"target": "T1, TRAF2, Q12933", "T1 chain": "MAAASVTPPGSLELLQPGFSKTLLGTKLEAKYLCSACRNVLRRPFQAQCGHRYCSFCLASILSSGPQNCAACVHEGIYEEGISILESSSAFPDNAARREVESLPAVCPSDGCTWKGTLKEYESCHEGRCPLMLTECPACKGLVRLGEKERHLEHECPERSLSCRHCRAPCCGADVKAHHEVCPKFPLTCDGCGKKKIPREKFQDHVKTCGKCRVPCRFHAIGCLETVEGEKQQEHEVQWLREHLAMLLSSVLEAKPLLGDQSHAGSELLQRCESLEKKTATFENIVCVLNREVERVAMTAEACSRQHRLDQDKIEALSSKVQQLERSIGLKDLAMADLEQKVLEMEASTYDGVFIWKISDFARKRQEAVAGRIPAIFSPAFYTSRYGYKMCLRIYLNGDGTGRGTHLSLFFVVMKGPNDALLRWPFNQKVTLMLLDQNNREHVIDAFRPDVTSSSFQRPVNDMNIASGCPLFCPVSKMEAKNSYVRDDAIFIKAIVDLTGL", "assay": "median log2 fold change of GCK-ALFA target abundance (FLAG IP / Myc IP barcode read proportion) (log2 ratio); each designed protein is fused to an ALFA-tag nanobody in HEK293 cells to bring the named protein to FLAG-tagged glucokinase (GCK); Myc marks an untargeted standard; higher = target protein stabilised (more abundant)", "details": "target protein: 3xFLAG-MCP-GCK-ALFA reporter; HEK293 landing pad (RPLP)", "in_short": "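Binders fused to an ALFA nanobody were recombined as a library into HEK293 landing-pad cells, which were induced with 2 μg mL^−1 doxycycline and then transfected to express a FLAG-tagged target and a Myc-tagged standard. After 48 h, circular RNA barcodes recovered by anti-FLAG and anti-Myc immunoprecipitation of lysates were reverse transcribed, amplified and sequenced. Each binder's target abundance is the median log2 ratio of FLAG to Myc barcode read proportions, from barcodes present at ≥10^−7 in both replicates, binders carrying ≥3 barcodes per replicate, a 10^−6 pseudocount and pooled replicates.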", "values": [{"binder": "B1", "median log2 fold change": -1.09}, {"binder": "B2", "median log2 fold change": -1.3}, {"binder": "B3", "median log2 fold change": 0.253}, {"binder": "B4", "median log2 fold change": 0.286}, {"binder": "B5", "median log2 fold change": 0.317}, {"binder": "B6", "median log2 fold change": 0.201}, {"binder": "B7", "median log2 fold change": 0.257}, {"binder": "B8", "median log2 fold change": 0.0153}, {"binder": "B9", "median log2 fold change": 0.269}, {"binder": "B10", "median log2 fold change": 0.155}, {"binder": "B11", "median log2 fold change": -0.00406}, {"binder": "B12", "median log2 fold change": -1.3}, {"binder": "B13", "median log2 fold change": -0.159}, {"binder": "B14", "median log2 fold change": -0.0797}, {"binder": "B15", "median log2 fold change": -0.43}, {"binder": "B16", "median log2 fold change": -0.0877}, {"binder": "B17", "median log2 fold change": 0.462}, {"binder": "B18", "median log2 fold change": 0.182}, {"binder": "B19", "median log2 fold change": -0.212}, {"binder": "B20", "median log2 fold change": 0.0223}, {"binder": "B21", "median log2 fold change": -0.0214}, {"binder": "B22", "median log2 fold change": -0.509}, {"binder": "B23", "median log2 fold change": 0.104}, {"binder": "B24", "median log2 fold change": 0.203}, {"binder": "B25", "median log2 fold change": -0.416}, {"binder": "B26", "median log2 fold change": 0.164}, {"binder": "B27", "median log2 fold change": -0.483}, {"binder": "B28", "median log2 fold change": -0.0309}, {"binder": "B29", "median log2 fold change": -0.0095}]}]}
